Source: paper PMC4336329 (PLoS ONE, 2015)
Among all 310,000 compounds or so, about 14,000 (4.5%) showed an effect of 50% or more. Effects have a minus sign here. Some of the results follow.

Each compound was assayed against human ether-à-go-go-related gene (hERG) potassium channel (human, UniProt Q12809) (assay: primary screen, population patch clamp on CHO cells stably expressing hERG).
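Note: peak tail current of the secondary pulse compared with the same well before compound.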

Sequence of human ether-à-go-go-related gene (hERG) potassium channel (Q12809 whole entry, looked up): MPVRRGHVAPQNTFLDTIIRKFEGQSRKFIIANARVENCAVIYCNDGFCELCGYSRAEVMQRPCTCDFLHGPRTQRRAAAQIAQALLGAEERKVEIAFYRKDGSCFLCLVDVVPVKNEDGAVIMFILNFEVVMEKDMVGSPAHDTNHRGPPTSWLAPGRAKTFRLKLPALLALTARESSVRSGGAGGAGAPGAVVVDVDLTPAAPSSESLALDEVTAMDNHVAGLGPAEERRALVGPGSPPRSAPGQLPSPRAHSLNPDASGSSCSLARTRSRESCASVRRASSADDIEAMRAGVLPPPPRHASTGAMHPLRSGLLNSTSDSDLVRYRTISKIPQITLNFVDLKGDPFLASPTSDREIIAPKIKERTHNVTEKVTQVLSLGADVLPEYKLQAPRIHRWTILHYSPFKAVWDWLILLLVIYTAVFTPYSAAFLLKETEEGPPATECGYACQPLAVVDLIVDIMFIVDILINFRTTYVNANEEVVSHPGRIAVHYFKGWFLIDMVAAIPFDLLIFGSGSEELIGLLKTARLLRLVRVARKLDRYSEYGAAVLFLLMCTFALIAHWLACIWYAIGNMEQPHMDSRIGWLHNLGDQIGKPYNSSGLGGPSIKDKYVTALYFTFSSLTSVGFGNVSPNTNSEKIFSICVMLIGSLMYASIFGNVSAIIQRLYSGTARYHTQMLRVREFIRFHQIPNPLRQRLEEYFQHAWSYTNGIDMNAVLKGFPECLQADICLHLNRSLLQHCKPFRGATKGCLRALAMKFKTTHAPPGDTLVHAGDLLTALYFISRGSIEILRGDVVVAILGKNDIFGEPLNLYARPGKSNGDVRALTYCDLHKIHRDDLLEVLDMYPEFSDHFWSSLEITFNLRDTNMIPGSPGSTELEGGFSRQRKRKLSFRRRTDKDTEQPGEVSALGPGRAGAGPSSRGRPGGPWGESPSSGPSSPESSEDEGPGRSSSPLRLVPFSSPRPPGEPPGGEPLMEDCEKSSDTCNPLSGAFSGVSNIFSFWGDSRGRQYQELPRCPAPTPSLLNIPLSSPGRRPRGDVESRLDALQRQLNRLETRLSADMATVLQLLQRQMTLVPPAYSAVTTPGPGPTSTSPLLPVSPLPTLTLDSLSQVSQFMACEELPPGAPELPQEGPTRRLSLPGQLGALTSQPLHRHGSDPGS

Question: With `CC(=O)Oc1cc(O)c2c(c1)OC(c1ccc(OC(C)=O)c(OC(C)=O)c1)C(OC(C)=O)C2=O` (stereo not shown) as the compound, how does the “hERG current change (%, negative = inhibition) at 10uM” value read?
Answer: -4.69%

Question: For `O=[N+]([O-])c1cc2c(cc1CN1CCN(c3ccc(F)cc3)CC1)OCO2`, which “hERG current change (%, negative = inhibition) at 10uM” value is on record?
Answer: -22.2%

Question: With `COCCn1c(=O)c2c(nc3n2CCCN3CCc2ccccc2)n(C)c1=O` as the compound, how does the “hERG current change (%, negative = inhibition) at 10uM” value read?
Answer: -31.2%

Question: `O=C1NC(=S)N(c2ccccc2)C(=O)/C1=C/c1ccco1` was tested. Which “hERG current change (%, negative = inhibition) at 10uM” value did it give?
Answer: -10%

Question: With `CC(C)C(=O)Nc1nnc(S(=O)(=O)N2CCCCCC2)s1` as the compound, how does the “hERG current change (%, negative = inhibition) at 10uM” value read?
Answer: 10.4%

Question: How did the “hERG current change (%, negative = inhibition) at 10uM” value turn out when `Cc1cc(C)n2nc(C(=O)Nc3ccc4c(c3)OCCO4)nc2n1` was run?
Answer: 10.9%

Question: `CCOc1cc2[nH]c(=S)n(CCCOC)c(=O)c2cc1OCC` was tested. Which “hERG current change (%, negative = inhibition) at 10uM” value did it give?
Answer: -12.1%

Question: For `Cn1c(=O)c2c(nc(SCC(=O)NCc3ccc4c(c3)OCO4)n2Cc2ccc(Cl)cc2)n(C)c1=O`, which “hERG current change (%, negative = inhibition) at 10uM” value is on record?
Answer: -50.6%

Question: For `Cc1ccnc(N2C3CCC2CC(O)(c2ccccc2)C3)n1` (stereo not shown), which “hERG current change (%, negative = inhibition) at 10uM” value is on record?
Answer: 27.4%

Question: `O=C(NC(=S)N1CCCCCC1)c1ccccc1` was tested. Which “hERG current change (%, negative = inhibition) at 10uM” value did it give?
Answer: 19.8%

Question: For `COC(=O)c1cc(S(=O)(=O)Nc2cc(OC)cc(OC)c2)c[nH]1`, which “hERG current change (%, negative = inhibition) at 10uM” value is on record?
Answer: 4.11%

Question: For `Cc1nnc(NC(=O)c2cccc(S(=O)(=O)N3CC(c4ccccc4)CC3=O)c2)s1` (stereo not shown), which “hERG current change (%, negative = inhibition) at 10uM” value is on record?
Answer: -16.1%

Question: With `O=c1[nH]c(=O)n(CCOc2ccc(Cl)cc2)cc1Br` as the compound, how does the “hERG current change (%, negative = inhibition) at 10uM” value read?
Answer: -4.33%

Question: How did the “hERG current change (%, negative = inhibition) at 10uM” value turn out when `COc1ccccc1NC(=O)CSc1nncn1-c1cccnc1` was run?
Answer: -4.19%

Question: For `COc1ccc(OC)c(NC(=O)CSc2ncnc3c2cnn3-c2ccccc2Cl)c1`, which “hERG current change (%, negative = inhibition) at 10uM” value is on record?
Answer: -4.1%

Question: For `CCN(CC(=O)NCc1ccc(Cl)cc1)C(=O)/C=C/c1ccc(Cl)c([N+](=O)[O-])c1`, which “hERG current change (%, negative = inhibition) at 10uM” value is on record?
Answer: -67.6%

Question: `O=C(OCC(=O)N1CCCc2ccccc21)c1cc(S(=O)(=O)N2CCOCC2)ccc1F` was tested. Which “hERG current change (%, negative = inhibition) at 10uM” value did it give?
Answer: -13.3%

Question: For `CC(C)(C)n1nnnc1C(c1cccnc1)N1CCN(c2ccccc2F)CC1` (stereo not shown), which “hERG current change (%, negative = inhibition) at 10uM” value is on record?
Answer: -3.22%

Question: For `Cc1cc2oc(=O)cc(CN3CCCc4ccccc43)c2cc1C`, which “hERG current change (%, negative = inhibition) at 10uM” value is on record?
Answer: 17.1%

Question: How did the “hERG current change (%, negative = inhibition) at 10uM” value turn out when `Cc1ccc(-c2nc(CS(=O)(=O)CC(=O)NCc3ccc4c(c3)OCO4)c(C)o2)cc1` was run?
Answer: 8%

Question: How did the “hERG current change (%, negative = inhibition) at 10uM” value turn out when `COc1ccc(-n2ccnc(SCC(=O)NC3CCCC3)c2=O)cc1` was run?
Answer: 0.0746%

Question: How did the “hERG current change (%, negative = inhibition) at 10uM” value turn out when `CC(=O)N1CCOc2ccc(S(=O)(=O)NCCc3ccc(C)cc3)cc21` was run?
Answer: -2.91%

Question: With `Cn1cnnc1SCC(C)(C)NS(=O)(=O)c1ccc(Cl)cc1` as the compound, how does the “hERG current change (%, negative = inhibition) at 10uM” value read?
Answer: 31.7%

Question: For `CCC(=O)N1CCc2cc(S(=O)(=O)CCC(=O)NCc3ccc(C)cc3)ccc21`, which “hERG current change (%, negative = inhibition) at 10uM” value is on record?
Answer: 15.6%

Question: For `Cc1ccc(C(=O)OCc2nc(N)nc(Nc3ccccc3C)n2)cc1`, which “hERG current change (%, negative = inhibition) at 10uM” value is on record?
Answer: 6.18%

Question: How did the “hERG current change (%, negative = inhibition) at 10uM” value turn out when `N#C/C(=C\c1ccccc1)C(=O)Nc1cc(S(=O)(=O)N2CCOCC2)ccc1N1CCCC1` was run?
Answer: -7.36%

Question: How did the “hERG current change (%, negative = inhibition) at 10uM” value turn out when `CC(CCCC(C)(C)O)NCc1cn[nH]c1-c1ccc2c(c1)OCO2` (stereo not shown) was run?
Answer: -19.7%

Question: `COc1ccc(CSCCc2n[nH]c(=S)n2-c2ccccc2)cc1C` was tested. Which “hERG current change (%, negative = inhibition) at 10uM” value did it give?
Answer: 0.99%

Question: `COc1ccc(-n2c(SCC(=O)NNC(=O)c3ccc(C)cc3)nnc2-c2ccncc2)cc1` was tested. Which “hERG current change (%, negative = inhibition) at 10uM” value did it give?
Answer: -58.6%

Question: How did the “hERG current change (%, negative = inhibition) at 10uM” value turn out when `CN1CCN(NC(=O)CSc2ccc(Cl)cc2Cl)CC1` was run?
Answer: 17.6%

Question: Which “hERG current change (%, negative = inhibition) at 10uM” value does the source give for `O=C(CN1CCN(Cc2ccc(Cl)cc2)C1=O)NCc1cccs1` here?
Answer: -57.6%

Question: Which “hERG current change (%, negative = inhibition) at 10uM” value does the source give for `CN(C)N=Nc1ccc(S(=O)(=O)NC(=O)Cc2ccccc2)cc1` here?
Answer: 8.66%

Question: `O=C(Cc1cccs1)Nc1nnc(C2CC2)s1` was tested. Which “hERG current change (%, negative = inhibition) at 10uM” value did it give?
Answer: 16.1%

Question: Which “hERG current change (%, negative = inhibition) at 10uM” value does the source give for `COCCSc1ccccc1C(=O)Nc1nnc(C)s1` here?
Answer: -5.34%

Question: For `C(=N\N(c1ccccc1)c1ccccc1)/c1ccccn1`, which “hERG current change (%, negative = inhibition) at 10uM” value is on record?
Answer: 7.74%

Question: `O=C(CCc1ccccc1)Nc1nn[nH]n1` was tested. Which “hERG current change (%, negative = inhibition) at 10uM” value did it give?
Answer: -5.09%

Question: For `COc1ccc(C(=O)OCCCN(C)C)cc1OC`, which “hERG current change (%, negative = inhibition) at 10uM” value is on record?
Answer: -8.38%

Question: For `CCC(NC(=O)c1oc2ccccc2c1COC)c1ccc(OC)cc1` (stereo not shown), which “hERG current change (%, negative = inhibition) at 10uM” value is on record?
Answer: 10.4%

Question: `CCc1c(C(=O)OC)nnc2cc(C)nn12` was tested. Which “hERG current change (%, negative = inhibition) at 10uM” value did it give?
Answer: 15.5%

Question: For `NC(=O)CN1C(=O)C(=O)N(Cc2ccc(F)cc2)C1=O`, which “hERG current change (%, negative = inhibition) at 10uM” value is on record?
Answer: 20.8%

Question: `COc1cc(/C=N/NC(=O)c2cc(-c3cccc(OC(C)C)c3)nc3ccccc23)ccc1O` was tested. Which “hERG current change (%, negative = inhibition) at 10uM” value did it give?
Answer: -0.055%

Question: `CCCOCC1CC(CCc2nc(=S)[nH][nH]2)C(=O)O1` (stereo not shown) was tested. Which “hERG current change (%, negative = inhibition) at 10uM” value did it give?
Answer: 19.8%

Question: With `O=C(C[n+]1ccn(CCCNP2(=O)C=C(c3ccccc3)OC(c3ccccc3)=C2)c1)c1ccccc1.[Br-]` as the compound, how does the “hERG current change (%, negative = inhibition) at 10uM” value read?
Answer: -22.8%
